# Laboratory results from the supplement of paper PMC8728848.
# The list shows a part of the results.
# B1: SJA (Sophora japonica) (protein)
# chain: FLGLFNSGGYSSSYQIVAVEFDTYINEWDPKTRHIGIDINSINSTKTVTWGWENGEVAIVLISYKAATETLTVSLTYPSSQTSYILSAAVDLKSILPEWVRIGF
# Tests used:
# Experiment in all cases: glycan array binding signal (z-score within array); higher = stronger binding
# Details in all cases: glycan notation: IUPAC condensed, linker removed
# [1] = target: Neu5Ac(a2-3)Gal(b1-4)GlcNAc6S
# Outline: (§1)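 The binding signal is a Z-score computed within each array and averaged over linkers. Arrays of the same protein sequence at different concentrations or buffers were also averaged together. Data originate from 3228 arrays in the Consortium for Functional Glycomics database, kept only where the protein sequence was available.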
# [2] = target: Neu5Ac(a2-3)Gal(b1-4)[Fuc(a1-3)]GlcNAc
# Outline: as §1
# [3] = target: Neu5Ac(a2-3)Gal(b1-4)[Fuc(a1-3)]GlcNAc(b1-2)Man
# Outline: as §1
# [4] = target: Neu5Ac(a2-3)Gal(b1-4)[Fuc(a1-3)]GlcNAc(b1-3)Gal
# Outline: as §1
# [5] = target: Neu5Ac(a2-3)Gal(b1-4)[Fuc(a1-3)]GlcNAc(b1-3)Gal(b1-4)GlcNAc
# Outline: as §1
# [6] = target: Neu5Ac(a2-3)Gal(b1-4)[Fuc(a1-3)]GlcNAc(b1-3)Gal(b1-4)[Fuc(a1-3)]GlcNAc(b1-3)Gal(b1-4)[Fuc(a1-3)]GlcNAc
# Outline: as §1
# [7] = target: Neu5Ac(a2-3)Gal(b1-4)[Fuc(a1-3)]GlcNAc(b1-3)GalNAc
# Outline: as §1
# [8] = target: Neu5Ac(a2-3)Gal(b1-4)[Fuc(a1-3)]GlcNAc(b1-6)[Gal(b1-3)]GalNAc
# Outline: as §1
# [9] = target: Neu5Ac(a2-3)Gal(b1-4)[Fuc(a1-3)]GlcNAc(b1-6)[Neu5Ac(a2-3)Gal(b1-3)]GalNAc
# Outline: as §1
# [10] = target: Neu5Ac(a2-3)Gal(b1-4)[Fuc(a1-3)]GlcNAc6S
# Outline: as §1
# [11] = target: Neu5Ac(a2-3)Gal6S(b1-4)GlcNAc
# Outline: as §1
# [12] = target: Neu5Ac(a2-3)Gal6S(b1-4)[Fuc(a1-3)]GlcNAc
# Outline: as §1
# Neu5Ac(a2-3)GalNAc = target: Neu5Ac(a2-3)GalNAc
# Outline: as §1
# [13] = target: Neu5Ac(a2-3)GalNAc(b1-4)GlcNAc
# Outline: as §1
# [14] = target: Neu5Ac(a2-3)[GalNAc(b1-4)]Gal(b1-4)Glc
# Outline: as §1
# [15] = target: Neu5Ac(a2-3)[GalNAc(b1-4)]Gal(b1-4)GlcNAc
# Outline: as §1
# [16] = target: Neu5Ac(a2-3)[GalNAc(b1-4)]Gal(b1-4)GlcNAc(b1-3)GalNAc
# Outline: as §1
# [17] = target: Neu5Ac(a2-3)[Neu5Ac(a2-6)]GalNAc
# Outline: as §1
# Neu5Ac(a2-6)Gal = target: Neu5Ac(a2-6)Gal
# Outline: as §1
# [18] = target: Neu5Ac(a2-6)Gal(b1-3)GlcNAc(b1-3)[Gal(b1-4)GlcNAc(b1-6)]Gal(b1-4)Glc
# Outline: as §1
# Neu5Ac(a2-6)Gal(b1-4)Glc = target: Neu5Ac(a2-6)Gal(b1-4)Glc
# Outline: as §1
# [19] = target: Neu5Ac(a2-6)Gal(b1-4)GlcNAc
# Outline: as §1
# [20] = target: Neu5Ac(a2-6)Gal(b1-4)GlcNAc(b1-2)Man
# Outline: as §1
# [21] = target: Neu5Ac(a2-6)Gal(b1-4)GlcNAc(b1-2)Man(a1-3)Man(b1-4)GlcNAc(b1-4)GlcNAc
# Outline: as §1
# [22] = target: Neu5Ac(a2-6)Gal(b1-4)GlcNAc(b1-2)Man(a1-3)[Gal(b1-4)GlcNAc(b1-2)Man(a1-6)]Man(b1-4)GlcNAc(b1-4)GlcNAc
# Outline: as §1
# [23] = target: Neu5Ac(a2-6)Gal(b1-4)GlcNAc(b1-2)Man(a1-3)[GlcNAc(b1-2)Man(a1-6)]Man(b1-4)GlcNAc(b1-4)GlcNAc
# Outline: as §1
# [24] = target: Neu5Ac(a2-6)Gal(b1-4)GlcNAc(b1-2)Man(a1-3)[GlcNAc(b1-4)][Neu5Ac(a2-6)Gal(b1-4)GlcNAc(b1-2)Man(a1-6)]Man(b1-4)GlcNAc(b1-4)GlcNAc
# Outline: as §1
# [25] = target: Neu5Ac(a2-6)Gal(b1-4)GlcNAc(b1-2)Man(a1-3)[Man(a1-6)]Man(b1-4)GlcNAc(b1-4)GlcNAc
# Outline: as §1
# [26] = target: Neu5Ac(a2-6)Gal(b1-4)GlcNAc(b1-2)Man(a1-3)[Neu5Ac(a2-3)Gal(b1-4)GlcNAc(b1-2)Man(a1-6)]Man(b1-4)GlcNAc(b1-4)GlcNAc
# Outline: as §1
# [27] = target: Neu5Ac(a2-6)Gal(b1-4)GlcNAc(b1-2)Man(a1-3)[Neu5Ac(a2-6)Gal(b1-4)GlcNAc(b1-2)Man(a1-6)]Man(b1-4)GlcNAc(b1-4)GlcNAc
# Outline: as §1
# [28] = target: Neu5Ac(a2-6)Gal(b1-4)GlcNAc(b1-2)Man(a1-3)[Neu5Ac(a2-6)Gal(b1-4)GlcNAc(b1-2)Man(a1-6)]Man(b1-4)GlcNAc(b1-4)[Fuc(a1-6)]GlcNAc
# Outline: as §1
# [29] = target: Neu5Ac(a2-6)Gal(b1-4)GlcNAc(b1-2)Man(a1-6)Man(b1-4)GlcNAc(b1-4)GlcNAc
# Outline: as §1
# [30] = target: Neu5Ac(a2-6)Gal(b1-4)GlcNAc(b1-2)Man(a1-6)[Gal(b1-4)GlcNAc(b1-2)Man(a1-3)]Man(b1-4)GlcNAc(b1-4)GlcNAc
# Outline: as §1
# [31] = target: Neu5Ac(a2-6)Gal(b1-4)GlcNAc(b1-2)Man(a1-6)[GlcNAc(b1-2)Man(a1-3)]Man(b1-4)GlcNAc(b1-4)GlcNAc
# Outline: as §1
# [32] = target: Neu5Ac(a2-6)Gal(b1-4)GlcNAc(b1-2)Man(a1-6)[Man(a1-3)]Man(b1-4)GlcNAc(b1-4)GlcNAc
# Outline: as §1
# [33] = target: Neu5Ac(a2-6)Gal(b1-4)GlcNAc(b1-2)[Neu5Ac(a2-6)Gal(b1-4)GlcNAc(b1-4)]Man(a1-3)[GlcNAc(b1-4)][Neu5Ac(a2-6)Gal(b1-4)GlcNAc(b1-2)[Neu5Ac(a2-6)Gal(b1-4)GlcNAc(b1-6)]Man(a1-6)]Man(b1-4)GlcNAc(b1-4)GlcNAc
# Outline: as §1
# [34] = target: Neu5Ac(a2-6)Gal(b1-4)GlcNAc(b1-2)[Neu5Ac(a2-6)Gal(b1-4)GlcNAc(b1-4)]Man(a1-3)[GlcNAc(b1-4)][Neu5Ac(a2-6)Gal(b1-4)GlcNAc(b1-4)Man(a1-6)]Man(b1-4)GlcNAc(b1-4)GlcNAc
# Outline: as §1
# [35] = target: Neu5Ac(a2-6)Gal(b1-4)GlcNAc(b1-2)[Neu5Ac(a2-6)Gal(b1-4)GlcNAc(b1-6)]Man(a1-6)[Neu5Ac(a2-6)Gal(b1-4)GlcNAc(b1-2)Man(a1-3)][GlcNAc(b1-4)]Man(b1-4)GlcNAc(b1-4)GlcNAc
# Outline: as §1
# [36] = target: Neu5Ac(a2-6)Gal(b1-4)GlcNAc(b1-3)Gal(b1-3)GlcNAc
# Outline: as §1
# [37] = target: Neu5Ac(a2-6)Gal(b1-4)GlcNAc(b1-3)Gal(b1-4)GlcNAc
# Outline: as §1
# [38] = target: Neu5Ac(a2-6)Gal(b1-4)GlcNAc(b1-3)Gal(b1-4)GlcNAc(b1-2)Man(a1-3)[Neu5Ac(a2-6)Gal(b1-4)GlcNAc(b1-3)Gal(b1-4)GlcNAc(b1-2)Man(a1-6)]GalNAc
# Outline: as §1
# [39] = target: Neu5Ac(a2-6)Gal(b1-4)GlcNAc(b1-3)Gal(b1-4)GlcNAc(b1-3)Gal(b1-4)GlcNAc
# Outline: as §1
# [40] = target: Neu5Ac(a2-6)Gal(b1-4)GlcNAc(b1-3)Gal(b1-4)GlcNAc(b1-3)Gal(b1-4)GlcNAc(b1-2)Man(a1-3)[Neu5Ac(a2-6)Gal(b1-4)GlcNAc(b1-3)Gal(b1-4)GlcNAc(b1-3)Gal(b1-4)GlcNAc(b1-2)Man(a1-6)]GalNAc
# Outline: as §1
# [41] = target: Neu5Ac(a2-6)Gal(b1-4)GlcNAc(b1-3)Gal(b1-4)GlcNAc(b1-3)GalNAc
# Outline: as §1
# [42] = target: Neu5Ac(a2-6)Gal(b1-4)GlcNAc(b1-3)Gal(b1-4)GlcNAc(b1-3)[Neu5Ac(a2-6)Gal(b1-4)GlcNAc(b1-3)Gal(b1-4)GlcNAc(b1-6)]GalNAc
# Outline: as §1
binder,measurement,setting,value
B1,glycan array binding signal (z-score),[1],-0.265
same,glycan array binding signal (z-score),[2],-0.18
same,glycan array binding signal (z-score),[3],-0.157
same,glycan array binding signal (z-score),[4],-0.317
same,glycan array binding signal (z-score),[5],-0.165
same,glycan array binding signal (z-score),[6],-0.208
same,glycan array binding signal (z-score),[7],-0.087
same,glycan array binding signal (z-score),[8],-0.036
same,glycan array binding signal (z-score),[9],-0.056
same,glycan array binding signal (z-score),[10],-0.247
same,glycan array binding signal (z-score),[11],-0.107
same,glycan array binding signal (z-score),[12],-0.256
same,glycan array binding signal (z-score),Neu5Ac(a2-3)GalNAc,-0.294
same,glycan array binding signal (z-score),[13],-0.234
same,glycan array binding signal (z-score),[14],-0.246
same,glycan array binding signal (z-score),[15],-0.251
same,glycan array binding signal (z-score),[16],0.864
same,glycan array binding signal (z-score),[17],-0.201
same,glycan array binding signal (z-score),Neu5Ac(a2-6)Gal,-0.122
same,glycan array binding signal (z-score),[18],-0.187
same,glycan array binding signal (z-score),Neu5Ac(a2-6)Gal(b1-4)Glc,-0.124
same,glycan array binding signal (z-score),[19],-0.22
same,glycan array binding signal (z-score),[20],-0.33
same,glycan array binding signal (z-score),[21],-0.207
same,glycan array binding signal (z-score),[22],-0.282
same,glycan array binding signal (z-score),[23],-0.29
same,glycan array binding signal (z-score),[24],-0.448
same,glycan array binding signal (z-score),[25],-0.164
same,glycan array binding signal (z-score),[26],-0.178
same,glycan array binding signal (z-score),[27],-0.095
same,glycan array binding signal (z-score),[28],-0.149
same,glycan array binding signal (z-score),[29],-0.09
same,glycan array binding signal (z-score),[30],-0.265
same,glycan array binding signal (z-score),[31],-0.097
same,glycan array binding signal (z-score),[32],-0.242
same,glycan array binding signal (z-score),[33],-0.212
same,glycan array binding signal (z-score),[34],-0.09
same,glycan array binding signal (z-score),[35],-0.339
same,glycan array binding signal (z-score),[36],-0.207
same,glycan array binding signal (z-score),[37],-0.283
same,glycan array binding signal (z-score),[38],0.045
same,glycan array binding signal (z-score),[39],-0.128
same,glycan array binding signal (z-score),[40],1.24
same,glycan array binding signal (z-score),[41],-0.366
same,glycan array binding signal (z-score),[42],1.33
